Test results taken from US20050282943A1, “Solubilized additive composition comprising acidic and basic constituents” (INVISTA NORTH AMERICA S.A R.L., priority 2004, published 2005).
Values after ≈ are worked out from the molar mass of the structure shown. Where two headings read alike, the source gives them in different places. Blank lines part the entries; values can stand above or below the compound they belong to.

How the values were obtained:
[1] = cited from earlier work
[2] = Dissolution of water insoluble additive in demineralized water on adding a counterpart salt forming species (visual)

Structure (SMILES): CC1(C)CC(OC(=O)CCCCCCCCC(=O)OC2CC(C)(C)NC(C)(C)C2)CC(C)(C)N1 [Tinuvin 770]
solubility in water ([1]; 20° C., technical data sheet): < 0.01 g/100 g

Structure (SMILES): CC(C)(C)c1cc(CCC(=O)O)cc(C(C)(C)C)c1O [Irganox 1310, 3-(3,5-di-t-butyl-4-hydroxyphenyl)propionic acid]
solubility in water ([1]; safety data sheet, no temperature given): insoluble in water

solubility in water (conclusion in words) ([2]; Comparative Examples 9, 10 and 11, listed as hexamethylenediamine salt of 3-(3,5-di-t-butyl-4-hydroxyphenyl)propionic acid): insufficient solubility in water
Structure (SMILES): CC(C)(C)c1cc(CCC(=O)O)cc(C(C)(C)C)c1O.CC(C)(C)c1cc(CCC(=O)O)cc(C(C)(C)C)c1O.NCCCCCCN [1,6-hexamethylenediammonium bis(3,5-di-t-butyl-4-hydroxyphenyl)propionate, reference compound]

behaviour of the additive in demineralized water alone ([2]; before any counterpart salt forming species is added): wetted out but did not dissolve
Structure (SMILES): CC1(C)CC(NC(=O)c2cccc(C(=O)NC3CC(C)(C)NC(C)(C)C3)c2)CC(C)(C)N1 [Nylostab SEED, N,N′-bis(2,2,6,6-tetramethyl-4-piperidinyl)-1,3-benzenedicarboxamide]
solubility in water ([1]; 30° C., safety data sheet): 0.139 g/L (≈ 314 µM)
dissolution (observation) ([2]; Nylostab SEED + terephthalic acid (1:1 mol) in demineralized water (Example 3)): gradually dissolved to form a colourless solution

Structure (SMILES): CN1C(C)(C)CC(OC(=O)CCCCCCCCC(=O)OC2CC(C)(C)N(C)C(C)(C)C2)CC1(C)C [Tinuvin 765, Bis(1,2,2,6,6-pentamethyl-4-piperidinyl) sebacate]
solubility in water ([1]; 20° C., technical data sheet): < 0.01 % w/w

Structure (SMILES): CCCCC(Cc1cc(C(C)(C)C)c(O)c(C(C)(C)C)c1)(C(=O)OC1CC(C)(C)N(C)C(C)(C)C1)C(=O)OC1CC(C)(C)N(C)C(C)(C)C1 [Tinuvin 144]
solubility in water ([1]; 20° C., safety data sheet): insoluble in water
